Reference: the supplement of paper PMC4604168 (melanoma cell lines)
The other results are listed elsewhere or left out. Many values rest on one well or one pass, so single values are uncertain.

What follows are molecules tested on SkMel5 (assay: cell count relative to DMSO control; melanoma cells; higher = more viable cells). Settings: library dose: low library concentration; 72 h.
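Further: cell number obtained by counting DAPI-stained nuclei in high-throughput microscope images with image analysis software, screen run in 1,536-well plates.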

With `Nc1ccn([C@@H]2O[C@H](CO)[C@@H](O)C2(F)F)c(=O)n1` [gemcitabine] + O=C(CCCCCCC(=O)Nc1ccccc1)NO [vorinostat] (first compound 0.0004 µM, partner dose 0.08 µM) as the molecule, how does the cell count read?
Its cell count is 98.3%.

How did the cell count turn out when `Nc1nc(F)nc2c1ncn2[C@@H]1O[C@H](CO)[C@@H](O)[C@@H]1O` [fludarabine] + Oc1nc(-c2ccc(C(F)(F)F)cc2)nc2c1CSCC2 [XAV939] (first compound 0.2 µM, partner dose 2 µM) was run?
The cell count was 49.3%.

How did the cell count turn out when `Nc1ccn([C@@H]2O[C@H](CO)[C@@H](O)C2(F)F)c(=O)n1` [gemcitabine] + O=C(Nc1ccccc1)c1cc([N+](=O)[O-])ccc1Cl [GW9662] (first compound 0.0004 µM, partner dose 2 µM) was run?
Its cell count is 95.1%.

`CO[C@H]1C[C@@H]2CC[C@@H](C)[C@@](O)(O2)C(=O)C(=O)N2CCCC[C@H]2C(=O)O[C@H]([C@H](C)C[C@@H]2CC[C@@H](OCCO)[C@H](OC)C2)CC(=O)[C@H](C)/C=C(\C)[C@@H](O)[C@@H](OC)C(=O)[C@H](C)C[C@H](C)/C=C/C=C/C=C/1C` [everolimus] + CN(C)S(=O)(=O)c1ccc2c(c1)/C(=C/c1cc3c([nH]1)CCCC3)C(=O)N2 [SU6656] (first compound 0.02 µM, partner dose 0.4 µM) was tested. Which cell count did it give?
Its cell count is 85.1%.

For `Nc1ccn([C@@H]2O[C@H](CO)[C@@H](O)C2(F)F)c(=O)n1` [gemcitabine] + Cn1cc(/C=C2\C(=O)Nc3cccnc32)c2ccccc21 [GW441756] (first compound 0.0004 µM, partner dose 0.4 µM), which cell count is on record?
The cell count was 80.3%.

Which cell count does the source give for `CO[C@H]1C[C@@H]2CC[C@@H](C)[C@@](O)(O2)C(=O)C(=O)N2CCCC[C@H]2C(=O)O[C@H]([C@H](C)C[C@@H]2CC[C@@H](OCCO)[C@H](OC)C2)CC(=O)[C@H](C)/C=C(\C)[C@@H](O)[C@@H](OC)C(=O)[C@H](C)C[C@H](C)/C=C/C=C/C=C/1C` [everolimus] + OCCn1cc(-c2cnc3nnn(Cc4ccc5ncccc5c4)c3n2)cn1 [PF04217903] (first compound 0.02 µM, partner dose 1 µM) here?
The cell count was 96.3%.

Which cell count does the source give for `CC(=O)O[C@@]12CO[C@@H]1C[C@H](O)[C@@]1(C)C(=O)[C@H](O)C3=C(C)[C@@H](OC(=O)[C@H](O)[C@@H](NC(=O)OC(C)(C)C)c4ccccc4)C[C@@](O)([C@@H](OC(=O)c4ccccc4)[C@H]21)C3(C)C` [Docetaxel] + Cc1cc([N+](=O)[O-])ccc1NS(=O)(=O)c1cc(Cl)ccc1Cl [FH535] (first compound 0.0001 µM, partner dose 1 µM) here?
Its cell count is 85.3%.

For `CC(=O)c1c(C)c2cnc(Nc3ccc(N4CCNCC4)cn3)nc2n(C2CCCC2)c1=O` [palbociclib] + O=S(=O)(c1ccccc1)N(CC(F)(F)F)c1ccc(C(O)(C(F)(F)F)C(F)(F)F)cc1 [T0901317] (first compound 0.04 µM, partner dose 1.4 µM), which cell count is on record?
Its cell count is 70.7%.

For `Nc1ncn([C@H]2C[C@H](O)[C@@H](CO)O2)c(=O)n1` [decitabine] + Cn1cncc1[C@@](N)(c1ccc(Cl)cc1)c1ccc2c(c1)c(-c1cccc(Cl)c1)cc(=O)n2C [tipifarnib] (first compound 0.1 µM, partner dose 0.01 µM), which cell count is on record?
Its cell count is 96.1%.

With `CC(=O)O[C@@]12CO[C@@H]1C[C@H](O)[C@@]1(C)C(=O)[C@H](O)C3=C(C)[C@@H](OC(=O)[C@H](O)[C@@H](NC(=O)OC(C)(C)C)c4ccccc4)C[C@@](O)([C@@H](OC(=O)c4ccccc4)[C@H]21)C3(C)C` [Docetaxel] + COc1cc2ncnc(Nc3ccc(Oc4ccccc4)cc3)c2cc1OC [SrcI1] (first compound 0.0001 µM, partner dose 2 µM) as the molecule, how does the cell count read?
Its cell count is 68.2%.

For `CO[C@H]1C[C@@H]2CC[C@@H](C)[C@@](O)(O2)C(=O)C(=O)N2CCCC[C@H]2C(=O)O[C@H]([C@H](C)C[C@@H]2CC[C@@H](OCCO)[C@H](OC)C2)CC(=O)[C@H](C)/C=C(\C)[C@@H](O)[C@@H](OC)C(=O)[C@H](C)C[C@H](C)/C=C/C=C/C=C/1C` [everolimus] + CC(C)CCN1c2nc(Nc3cc(F)c(O)c(F)c3)ncc2N(C)C(=O)C1C [BID1870] (first compound 0.02 µM, partner dose 0.2 µM), which cell count is on record?
The cell count was 106%.

`CC(=O)c1c(C)c2cnc(Nc3ccc(N4CCNCC4)cn3)nc2n(C2CCCC2)c1=O` [palbociclib] + COc1cc(Nc2ncc(F)c(Nc3ccc4c(n3)NC(=O)C(C)(C)O4)n2)cc(OC)c1OC [Tamatinib] (first compound 0.04 µM, partner dose 0.4 µM) was tested. Which cell count did it give?
The cell count was 60%.

With `CO[C@H]1C[C@@H]2CC[C@@H](C)[C@@](O)(O2)C(=O)C(=O)N2CCCC[C@H]2C(=O)O[C@H]([C@H](C)C[C@@H]2CC[C@@H](OCCO)[C@H](OC)C2)CC(=O)[C@H](C)/C=C(\C)[C@@H](O)[C@@H](OC)C(=O)[C@H](C)C[C@H](C)/C=C/C=C/C=C/1C` [everolimus] + Cc1ccc(NC(=O)c2cccc(N(C)C)c2)cc1NC(=O)c1ccc(O)cc1 [ZM336372] (first compound 0.02 µM, partner dose 2 µM) as the molecule, how does the cell count read?
The cell count was 110%.

`CC(=O)c1c(C)c2cnc(Nc3ccc(N4CCNCC4)cn3)nc2n(C2CCCC2)c1=O` [palbociclib] + COc1ccc(COc2ccc(Cc3cnc(N)nc3N)cc2OC)cc1 [GW2580] (first compound 0.04 µM, partner dose 1 µM) was tested. Which cell count did it give?
Its cell count is 70.6%.

How did the cell count turn out when `CO[C@H]1C[C@@H]2CC[C@@H](C)[C@@](O)(O2)C(=O)C(=O)N2CCCC[C@H]2C(=O)O[C@H]([C@H](C)C[C@@H]2CC[C@@H](OCCO)[C@H](OC)C2)CC(=O)[C@H](C)/C=C(\C)[C@@H](O)[C@@H](OC)C(=O)[C@H](C)C[C@H](C)/C=C/C=C/C=C/1C` [everolimus] + CCc1ccc(CCOc2ccc(CC3SC(=O)NC3=O)cc2)nc1 [pioglitazone] (first compound 0.02 µM, partner dose 2 µM) was run?
The cell count was 116%.

How did the cell count turn out when `Nc1ncn([C@H]2C[C@H](O)[C@@H](CO)O2)c(=O)n1` [decitabine] + COc1ccc(COc2ccc(Cc3cnc(N)nc3N)cc2OC)cc1 [GW2580] (first compound 0.1 µM, partner dose 1 µM) was run?
Its cell count is 106%.

`Nc1nc(F)nc2c1ncn2[C@@H]1O[C@H](CO)[C@@H](O)[C@@H]1O` [fludarabine] + O=S(=O)(c1ccccc1)N(CC(F)(F)F)c1ccc(C(O)(C(F)(F)F)C(F)(F)F)cc1 [T0901317] (first compound 0.2 µM, partner dose 1.4 µM) was tested. Which cell count did it give?
Its cell count is 62.3%.

How did the cell count turn out when `Nc1ncn([C@H]2C[C@H](O)[C@@H](CO)O2)c(=O)n1` [decitabine] + O=C(O)C(=O)Nc1sc2c(c1C(=O)O)CCNC2 [TCS401] (first compound 0.1 µM, partner dose 1.66667 µM) was run?
Its cell count is 95.8%.
